# Measured values published in the supplement of paper PMC8728848.
# This is one part of the list.
# Assays:
# Test in all cases: glycan array binding signal (z-score within array); higher = stronger binding
# Conditions in all cases: glycan notation: IUPAC condensed, linker removed
# [1] = target: Fuc(a1-2)[Gal(a1-3)]Gal(b1-4)GlcNAc(b1-2)Man(a1-3)[Fuc(a1-2)[Gal(a1-3)]Gal(b1-4)GlcNAc(b1-2)Man(a1-6)]Man(b1-4)GlcNAc(b1-4)[Fuc(a1-6)]GlcNAc
# How it was run: (§1)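 Arrays were curated from the Consortium for Functional Glycomics database, 3228 in total, and kept only where the protein sequence was available. Binding is expressed as a within-array Z-score. This score was averaged across arrays of the same protein sequence at different concentrations or buffers and across linkers, and negative values can be read as non-binding.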
# [2] = target: Fuc(a1-2)[Gal(a1-3)]Gal(b1-4)GlcNAc(b1-3)GalNAc
# How it was run: as §1
# [3] = target: Fuc(a1-2)[Gal(a1-3)]Gal(b1-4)GlcNAc(b1-3)[Fuc(a1-2)[Gal(a1-3)]Gal(b1-4)GlcNAc(b1-6)]GalNAc
# How it was run: as §1
# [4] = target: Fuc(a1-2)[Gal(a1-3)]Gal(b1-4)GlcNAc(b1-6)GalNAc
# How it was run: as §1
# [5] = target: Fuc(a1-2)[Gal(a1-3)]Gal(b1-4)[Fuc(a1-3)]Glc
# How it was run: as §1
# [6] = target: Fuc(a1-2)[Gal(a1-3)]Gal(b1-4)[Fuc(a1-3)]GlcNAc
# How it was run: as §1
# [7] = target: Fuc(a1-2)[Gal(a1-3)]Gal(b1-4)[Fuc(a1-3)]GlcNAc(b1-3)GalNAc
# How it was run: as §1
# [8] = target: Fuc(a1-2)[Gal(a1-4)]Gal(b1-4)GlcNAc
# How it was run: as §1
# [9] = target: Fuc(a1-2)[GalNAc(a1-3)]Gal
# How it was run: as §1
# [10] = target: Fuc(a1-2)[GalNAc(a1-3)]Gal(b1-3)GalNAc(a1-3)[Fuc(a1-2)]Gal(b1-4)GlcNAc
# How it was run: as §1
# [11] = target: Fuc(a1-2)[GalNAc(a1-3)]Gal(b1-3)GalNAc(b1-3)Gal(a1-4)Gal(b1-4)Glc
# How it was run: as §1
# [12] = target: Fuc(a1-2)[GalNAc(a1-3)]Gal(b1-3)GlcNAc
# How it was run: as §1
# [13] = target: Fuc(a1-2)[GalNAc(a1-3)]Gal(b1-3)GlcNAc(b1-2)Man(a1-3)[Fuc(a1-2)[GalNAc(a1-3)]Gal(b1-3)GlcNAc(b1-2)Man(a1-6)]Man(b1-4)GlcNAc(b1-4)GlcNAc
# How it was run: as §1
# [14] = target: Fuc(a1-2)[GalNAc(a1-3)]Gal(b1-3)GlcNAc(b1-2)Man(a1-3)[Fuc(a1-2)[GalNAc(a1-3)]Gal(b1-3)GlcNAc(b1-2)Man(a1-6)]Man(b1-4)GlcNAc(b1-4)[Fuc(a1-6)]GlcNAc
# How it was run: as §1
# [15] = target: Fuc(a1-2)[GalNAc(a1-3)]Gal(b1-3)GlcNAc(b1-3)GalNAc
# How it was run: as §1
# [16] = target: Fuc(a1-2)[GalNAc(a1-3)]Gal(b1-3)GlcNAc(b1-6)GalNAc
# How it was run: as §1
# [17] = target: Fuc(a1-2)[GalNAc(a1-3)]Gal(b1-4)Glc
# How it was run: as §1
# [18] = target: Fuc(a1-2)[GalNAc(a1-3)]Gal(b1-4)GlcNAc
# How it was run: as §1
# [19] = target: Fuc(a1-2)[GalNAc(a1-3)]Gal(b1-4)GlcNAc(b1-2)Man
# How it was run: as §1
# [20] = target: Fuc(a1-2)[GalNAc(a1-3)]Gal(b1-4)GlcNAc(b1-2)Man(a1-3)[Fuc(a1-2)[GalNAc(a1-3)]Gal(b1-4)GlcNAc(b1-2)Man(a1-6)]Man(b1-4)GlcNAc(b1-4)GlcNAc
# How it was run: as §1
# [21] = target: Fuc(a1-2)[GalNAc(a1-3)]Gal(b1-4)GlcNAc(b1-2)Man(a1-3)[Fuc(a1-2)[GalNAc(a1-3)]Gal(b1-4)GlcNAc(b1-2)Man(a1-6)]Man(b1-4)GlcNAc(b1-4)[Fuc(a1-6)]GlcNAc
# How it was run: as §1
# [22] = target: Fuc(a1-2)[GalNAc(a1-3)]Gal(b1-4)GlcNAc(b1-3)Gal(b1-4)GlcNAc
# How it was run: as §1
# [23] = target: Fuc(a1-2)[GalNAc(a1-3)]Gal(b1-4)GlcNAc(b1-3)Gal(b1-4)GlcNAc(b1-3)Gal(b1-4)GlcNAc
# How it was run: as §1
# [24] = target: Fuc(a1-2)[GalNAc(a1-3)]Gal(b1-4)GlcNAc(b1-3)GalNAc
# How it was run: as §1
# [25] = target: Fuc(a1-2)[GalNAc(a1-3)]Gal(b1-4)GlcNAc(b1-3)[Fuc(a1-2)[GalNAc(a1-3)]Gal(b1-4)GlcNAc(b1-6)]GalNAc
# How it was run: as §1
# [26] = target: Fuc(a1-2)[GalNAc(a1-3)]Gal(b1-4)GlcNAc(b1-6)GalNAc
# How it was run: as §1
# [27] = target: Fuc(a1-2)[GalNAc(a1-3)]Gal(b1-4)[Fuc(a1-3)]GlcNAc
# How it was run: as §1
# [28] = target: Fuc(a1-2)[GalNAc(a1-3)]Gal(b1-4)[Fuc(a1-3)]GlcNAc(b1-3)GalNAc
# How it was run: as §1
# [29] = target: Fuc(a1-2)[GalNAc(a1-4)]Gal(b1-4)GlcNAc
# How it was run: as §1
# [30] = target: Fuc(a1-2)[GalNAc(b1-3)]Gal
# How it was run: as §1
# Fuc(a1-3)GlcNAc = target: Fuc(a1-3)GlcNAc
# How it was run: as §1
# [31] = target: Fuc(a1-3)[Gal(b1-4)]Glc6S
# How it was run: as §1
# [32] = target: Fuc(a1-3)[Gal(b1-4)]GlcNAc
# How it was run: as §1
# [33] = target: Fuc(a1-3)[Gal(b1-4)]GlcNAc(b1-2)Man
# How it was run: as §1
# [34] = target: Fuc(a1-3)[Gal(b1-4)]GlcNAc(b1-2)Man(a1-3)[Fuc(a1-3)[Gal(b1-4)]GlcNAc(b1-2)Man(a1-6)]Man(b1-4)GlcNAc(b1-4)GlcNAc
# How it was run: as §1
# [35] = target: Fuc(a1-3)[Gal(b1-4)]GlcNAc(b1-2)Man(a1-3)[Fuc(a1-3)[Gal(b1-4)]GlcNAc(b1-2)Man(a1-6)]Man(b1-4)GlcNAc(b1-4)[Fuc(a1-6)]GlcNAc
# How it was run: as §1
# [36] = target: Fuc(a1-3)[Gal(b1-4)]GlcNAc(b1-3)Gal(b1-3)[Fuc(a1-4)]GlcNAc
# How it was run: as §1
# [37] = target: Fuc(a1-3)[Gal(b1-4)]GlcNAc(b1-3)Gal(b1-4)[Fuc(a1-3)]GlcNAc
# How it was run: as §1
# [38] = target: Fuc(a1-3)[Gal(b1-4)]GlcNAc(b1-3)Gal(b1-4)[Fuc(a1-3)]GlcNAc(b1-3)Gal(b1-4)[Fuc(a1-3)]GlcNAc
# How it was run: as §1
# [39] = target: Fuc(a1-3)[Gal(b1-4)]GlcNAc(b1-3)GalNAc
# How it was run: as §1
# [40] = target: Fuc(a1-3)[Gal(b1-4)]GlcNAc(b1-6)GalNAc
# How it was run: as §1
# [41] = target: Fuc(a1-3)[Gal(b1-4)]GlcNAc(b1-6)[Gal(b1-3)GlcNAc(b1-3)]Gal(b1-4)Glc
# How it was run: as §1
# [42] = target: Fuc(a1-3)[Gal(b1-4)]GlcNAc6S
# How it was run: as §1
# [43] = target: Fuc(a1-3)[Gal3S(b1-4)]Glc
# How it was run: as §1
# [44] = target: Fuc(a1-3)[Gal3S(b1-4)]GlcNAc
# How it was run: as §1
binder,measurement,setting,value
AidA (Burkholderia cenocepacia) (protein) MSRVTDVLVSFDTETILKKYPNPSKNPAAPTLIDWRYVYMVTNQDNVISGQAGGELDLKAQVGDLIRWRETSLSLGFENQVVFYKFIGNVGNDLISTPTPRVAEASIPVPNTSKPEVPTCQKVANYYWSSECLKVGRVTYHFQFQIIDRNCQSQGCFSWDPFISIHN,glycan array binding signal (z-score),[1],0.334
same,glycan array binding signal (z-score),[2],0.22
same,glycan array binding signal (z-score),[3],0.451
same,glycan array binding signal (z-score),[4],0.125
same,glycan array binding signal (z-score),[5],-0.42
same,glycan array binding signal (z-score),[6],-0.366
same,glycan array binding signal (z-score),[7],-0.44
same,glycan array binding signal (z-score),[8],0.257
same,glycan array binding signal (z-score),[9],-0.281
same,glycan array binding signal (z-score),[10],0.483
same,glycan array binding signal (z-score),[11],-0.023
same,glycan array binding signal (z-score),[12],-0.054
same,glycan array binding signal (z-score),[13],0.186
same,glycan array binding signal (z-score),[14],-0.415
same,glycan array binding signal (z-score),[15],1.31
same,glycan array binding signal (z-score),[16],1.7
same,glycan array binding signal (z-score),[17],-0.083
same,glycan array binding signal (z-score),[18],-0.218
same,glycan array binding signal (z-score),[19],-0.558
same,glycan array binding signal (z-score),[20],-0.021
same,glycan array binding signal (z-score),[21],0.094
same,glycan array binding signal (z-score),[22],-0.23
same,glycan array binding signal (z-score),[23],0.982
same,glycan array binding signal (z-score),[24],0.188
same,glycan array binding signal (z-score),[25],-0.136
same,glycan array binding signal (z-score),[26],-0.35
same,glycan array binding signal (z-score),[27],-0.284
same,glycan array binding signal (z-score),[28],19.7
same,glycan array binding signal (z-score),[29],-0.07
same,glycan array binding signal (z-score),[30],0.114
same,glycan array binding signal (z-score),Fuc(a1-3)GlcNAc,-0.017
same,glycan array binding signal (z-score),[31],-0.308
same,glycan array binding signal (z-score),[32],0.172
same,glycan array binding signal (z-score),[33],0.556
same,glycan array binding signal (z-score),[34],-0.601
same,glycan array binding signal (z-score),[35],-0.556
same,glycan array binding signal (z-score),[36],-0.459
same,glycan array binding signal (z-score),[37],0.133
same,glycan array binding signal (z-score),[38],-0.21
same,glycan array binding signal (z-score),[39],-0.029
same,glycan array binding signal (z-score),[40],0.097
same,glycan array binding signal (z-score),[41],-0.816
same,glycan array binding signal (z-score),[42],-0.229
same,glycan array binding signal (z-score),[43],-0.269
same,glycan array binding signal (z-score),[44],1.39
